# Test results published in the RNAGym collection of RNA variant scans (doi:10.1093/nar/gkz1192).
# Read counts are not given, so values of variants with three or more changes are uncertain.
# B1: CPEB3 Ribozyme (parent)
# chain: UAACAGGGGGCCACAGCAGAAGCGUUCACGUCGCAGCCCCUGUCAGAUUCUGGUGAAUCUGCGAAUUCUGCUGUAUAUCUC
# Variants of: B1
# Test: self-cleavage, relative activity (ratio to wild type); higher = more cleavage; in vitro, sequencing
# Procedure, shortened: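 Barcoded CPEB3 ribozyme mutants, produced by rounds of error-prone PCR, self-cleaved while being transcribed with T7 RNA polymerase for 5 hours at 37°C and during a subsequent 15 min DNase I step before EDTA was added. Sequencing of template-switched cDNA on Illumina gave cleaved and total reads, and DNA sequencing assigned barcodes to variants. Each variant's relative activity is its cleaved/total read fraction divided by the unmutated ribozyme's fraction, averaged across three batches. A variant needed a minimum of 5 reads.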
row,Variant,self-cleavage
1,A5G G10U A13G C29A A57G A75G,0.07
2,A5G G10U A15U A21U U43C U80C,0
3,A5G G10U U25A U43C A45U U48A,0.04
4,A5G G16A A35U U76C U80C,0.11
5,A5G G19A A21G U41A A45U A64U A75G,0.05
6,A5G G19A A45U,0.39
7,A5G G19A U25C U31A G61U U72A U78C,0.14
8,A5G G19U U78C,0.23
9,A5G G24A A45U,0.38
10,A5G G24A A56G,0.4
11,A5G G24A A56U U60C,0.21
12,A5G G30A U41A G53A U60A,0.12
13,A5G G30A U41C A47G,0.36
14,A5G G30C A35G A64G,0.08
15,A5G G30C A35U U66C,0.24
16,A5G G30C U72A,0.11
17,A5G G33A U74A,0.19
18,A5G G36C A64G U69A U72C,0.34
19,A5G G42A A47U U67C,0.2
20,A5G G46A A56U,0.14
21,A5G G46A G55A U74C,0.3

row,Variant,self-cleavage
1,A5G G52C U80C,0.93
2,A5G G53A U66C,0.27
3,A5G G53U A56G A57U,0.28
4,A5G G53U C79U,0.89
5,A5G U25A A35U A64U G70U A75G,0.09
6,A5G U25A A56U,0.2
7,A5G U25C C34U A65G,0.09
8,A5G U25C C39A U69A,0.34
9,A5G U25C C44A U69A,0.17
10,A5G U25C U26C A57G U66C U72C,0
11,A5G U26A A28G,0.14
12,A5G U26A A28G A45C U54C,0.11
13,A5G U26A A35G A45C U49A U66C,0.06
14,A5G U26A A57G A65G U67C,0.15
15,A5G U26A G30U,0.11
16,A5G U26A U31C U41A,0.37
17,A5G U26A U43A A57G C68U,0.26
18,A5G U26C A47U U80C,0.52
19,A5G U26C A56G,0.54
20,A5G U26C A57G U69C,0.3
21,A5G U26C C32A U48C C68U A77G U78A,0.1

row,Variant,self-cleavage
1,A5G U26C C40U U60G U67A U69A,0.25
2,A5G U26C U31C G52U,0.12
3,A5G U26C U41A C50A U54G,0.1
4,A5G U26C U43A U60C U67C,0.33
5,A5G U26C U48C U54A A75C,0.33
6,A5G U26C U49C U78A,0.24
7,A5G U26C U60A U67C,0.04
8,A5G U26C U66C,0.26
9,A5G U26C U67C U74C,0.1
10,A5G U26C U80A,0.58
11,A5G U26G G61A U74C A75G,0.52
12,A5G U26G U41A,0.37
13,A5G U31A A35C U49C U51C U74C,0.07
14,A5G U31A A45G A56G A77U,0.38
15,A5G U31A A57U G70C,0.1
16,A5G U31A A77U,0.7
17,A5G U31A G53U U69C,0.13
18,A5G U31A U51A U60C,0.1
19,A5G U31C A35U A64G U78C,0.17
20,A5G U31C C50U,0.67
21,A5G U31C G33A,0.09

row,Variant,self-cleavage
1,A5G U31C G46A U66A A75U U76A,0.14
2,A5G U31C U41A A65G U72C,0.08
3,A5G U31C U48C U66C,0.47
4,A5G U31C U58C A65G U69C U80G,0.3
5,A5G U31C U67A U72G U80C,0.18
6,A5G U41A A47G A65G,0.34
7,A5G U41A U49C U69A U76A A77G,0.02
8,A5G U41A U60C,0.26
9,A5G U41A U80C,0.6
10,A5G U41C A47G A57G,0.31
11,A5G U41C A56U A57G U66C,0.04
12,A5G U41C A57G C59U A64U,0.09
13,A5G U41C A64G,0.35
14,A5G U41C C68A,0.31
15,A5G U41C G70A U78C,0.21
16,A5G U41C U43A U66C,0.33
17,A5G U41C U54A U67C C81U,0.2
18,A5G U43A A56G,0.66
19,A5G U43A U51A A64G G70U A75U,0.22
20,A5G U43A U80A,1.05
21,A5G U43C A77G,0.42
